Assay results from the supplement of paper PMC3724861.
This is one part of the list.

system: T1, Caupolican (Caup) homeodomain DNA-binding domain; test: PBM E-score (8-mer, recovered from the published 9-mer minima) (E-score (dimensionless, -0.5 to 0.5)); Drosophila protein; higher = stronger relative binding preference, active = 0.31 or more
T1 sequence: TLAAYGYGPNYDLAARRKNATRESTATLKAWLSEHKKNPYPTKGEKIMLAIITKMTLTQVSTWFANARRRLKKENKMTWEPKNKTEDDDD
Summary of the method: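 An enrichment score, with higher meaning stronger, expresses relative binding preference for each short DNA word. The protein used was Caup's homeodomain DNA-binding domain (residues 214-303), produced by in vitro transcription and translation and tested at 100 nM on custom-designed protein binding microarrays. The 8-mer values were recovered from published 9-mer scores, each equal to the lower of its two constituent 8-mer scores.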

Row | Sequence | PBM E-score
1 | GATAGCGC | inactive: -0.107
2 | ACTACTCG | ≥ 0.0893
3 | CGGCGTAC | inactive: -0.0593
4 | AACGCAAA | inactive: -0.0112
5 | ATAACGCG | inactive: 0.0282
6 | GCATTAAA | inactive: 0.155
7 | AGAAGTGA | inactive: 0.0244
8 | ATCTTAGC | inactive: -0.0153
9 | AACACCAT | ≥ 0.247
10 | ACAAAAAT | inactive: 0.202
11 | AATGGTCA | ≥ 0.146
12 | GCTGAATA | inactive: 0.0918
13 | TGCTAAAA | inactive: 0.0283
14 | CAATTCTG | inactive: -0.00857
15 | CGCGACCC | inactive: -0.2
16 | TCGACAGA | inactive: 0.072
17 | GATCGGCA | inactive: -0.0784
18 | CACTATCC | inactive: 0.0331
19 | CCGATGGC | inactive: -0.166
20 | AAAAAAGC | inactive: -0.0704
21 | GGGAGAAC | inactive: -0.124
22 | TAGATCGA | inactive: 0.0428
23 | AGCCCTTG | inactive: -0.0523
24 | GATTGCTA | inactive: 0.0183
25 | ACTTGCAA | inactive: 0.145

Row | Sequence | PBM E-score
26 | AAGGTAAC | inactive: 0.089
27 | ATGGGCAA | ≥ -0.0275
28 | TGGGCACA | inactive: -0.127
29 | GTGTGAAC | inactive: 0.0865
30 | AACCCTGT | inactive: 0.104
31 | ATTGTTTG | inactive: 0.201
32 | TCAGTTCA | inactive: 0.025
33 | ACCAGCAT | ≥ 0.0668
34 | AGAATAGA | inactive: 0.076
35 | ACGCATTA | inactive: 0.094
36 | AGGATACT | inactive: -0.0169
37 | ATTTAGGG | inactive: 0.00282
38 | AACGTTCT | inactive: -0.024
39 | ATGCCATA | ≥ 0.128
40 | AGAGGGCT | inactive: -0.15
41 | CCGTCACC | inactive: -0.211
42 | ACATCAGG | inactive: 0.133
43 | CGGATGTC | inactive: 0.0941
44 | ACGGAAGT | inactive: -0.0425
45 | ACCATCCT | inactive: 0.0551
46 | TCTGTAAA | inactive: 0.0832
47 | ACCAAGGT | inactive: -0.0505
48 | CGCTGGGA | inactive: -0.154
49 | AAATATCG | inactive: 0.12
50 | TAGGAAGA | inactive: -0.0388

Row | Sequence | PBM E-score
51 | GAGGCGCC | inactive: -0.271
52 | CGTTGTTA | inactive: 0.305
53 | CAACTACG | inactive: 0.152
54 | CGAGTACG | inactive: -0.00922
55 | AGTGTTGG | inactive: 0.014
56 | CACCCCAC | inactive: -0.0746
57 | AGCTCGGA | inactive: -0.128
58 | CAGGGACA | inactive: 0.0744
59 | GTATTTCA | inactive: 0.137
60 | CGCACGCA | inactive: -0.157
61 | TATGCGGA | inactive: -0.0186
62 | ACGGATTC | inactive: 0.0267
63 | GAGCTCAC | inactive: -0.177
64 | CAATGTGA | inactive: 0.187
65 | ATCTACAG | inactive: 0.158
66 | AGACGGGC | inactive: -0.193
67 | AAGTCTCT | inactive: -0.0709
68 | ACAGACAA | inactive: 0.289
69 | CCTACTTA | inactive: 0.0269
70 | GCTGGCCA | inactive: -0.192
71 | CTAGGGTC | inactive: -0.0576
72 | CACGGGCG | inactive: -0.145
73 | AGTTGCTA | inactive: 0.167
74 | CAGACACA | inactive: 0.179
75 | AGCCTTGA | inactive: -0.093

Row | Sequence | PBM E-score
76 | ATCGGTAA | inactive: 0.109
77 | AGGCACAG | inactive: -0.0452
78 | TCACTCGA | inactive: 0.0702
79 | CGAGGCAA | inactive: -0.016
80 | CGAATAAA | inactive: 0.00592
81 | AACAGCGT | inactive: 0.145
82 | AATCAGCT | inactive: 0.0751
83 | CAAACCCC | inactive: -0.0734
84 | CGTGACGC | inactive: -0.0156
85 | ATTAACTG | inactive: 0.152
86 | GATCGGAA | inactive: 0.052
87 | GATAATGC | inactive: 0.0936
88 | GAATAAGC | inactive: 0.0891
89 | ACAAAGAA | inactive: 0.152
90 | CTGAGGCC | inactive: -0.219
91 | TGCTAGAA | inactive: 0.0542
92 | GTCTCCTA | inactive: -0.0168
93 | AAGCCGTA | ≥ -0.0277
94 | AAGGCATA | inactive: -0.0141
95 | AAGGCAGT | inactive: -0.0372
96 | GTGGGTCA | inactive: -0.103
97 | ACGTACGG | inactive: -0.00051
98 | GATATCGC | inactive: 0.0708
99 | ACGCATGG | inactive: -0.0779
100 | CTGCTAAG | inactive: -0.143

Row | Sequence | PBM E-score
101 | AGACCGAA | inactive: -0.0369
102 | GAATAGAA | inactive: 0.126
103 | ATCGCTAA | ≥ 0.104
104 | CGAGGGCA | inactive: -0.147
105 | GCACACGA | inactive: -0.0434
106 | AATCATTC | inactive: 0.0967
107 | ATCGGTGC | inactive: 0.023
108 | ACTAGACC | inactive: 0.023
109 | AACTCGCC | inactive: -0.0173
110 | ACACAACG | inactive: 0.206
111 | ATACAAAG | inactive: 0.143
112 | CACCTGTA | inactive: 0.177
113 | GGAGGCAC | inactive: -0.154
114 | ACTTACCG | inactive: 0.0553
115 | AGGGAAAA | ≥ 0.0138
116 | AAAAAGGG | inactive: -0.138
117 | AGAGGGTC | inactive: -0.198
118 | AACTGGGA | inactive: -0.054
119 | GCTACCCA | inactive: -0.155
120 | GACAGAGC | inactive: 0.0238
121 | AAGTCGTC | inactive: 0.0133
122 | CAACACAC | inactive: 0.246
123 | CTGCATTC | inactive: 0.013
124 | CGCAAGCG | inactive: -0.144
125 | GGTCGGAC | inactive: -0.0568

Row | Sequence | PBM E-score
126 | AGCCGTTC | inactive: -0.195
127 | ATATCAAA | inactive: 0.138
128 | TACCCCTA | ≥ -0.0164
129 | AGTGTAGA | inactive: 0.162
130 | ACTCGATG | inactive: 0.143
131 | CGCAGGGA | inactive: -0.29
132 | ATCTAGAA | ≥ 0.0782
133 | CCTTCTGA | inactive: -0.0769
134 | ACTCTTTC | inactive: -0.0436
135 | GCTCGCAA | inactive: -0.0483
136 | AAAACCCA | inactive: 0.0445
137 | ACTGGGTG | inactive: -0.0485
138 | CCTCAGGA | inactive: -0.112
139 | CCCCAAAA | inactive: -0.0955
140 | ATATACGG | inactive: 0.0947
141 | CCTAATAA | inactive: 0.0567
142 | CTTCGTAA | inactive: 0.0215
143 | CATCTAGG | inactive: -0.0637
144 | ATGATAAA | inactive: 0.0893
145 | GGATACGA | inactive: 0.089
146 | ATAAGCCC | inactive: -0.0856
147 | CAAATAGG | inactive: -0.00893
148 | GGCATCAA | inactive: -0.0439
149 | GAACTGTA | inactive: 0.0948
150 | CTGTCAAC | inactive: 0.186

Row | Sequence | PBM E-score
151 | CTGCTCAC | inactive: -0.0607
152 | AGACTTGG | inactive: -0.0701
153 | GTAGTGCA | inactive: 0.116
154 | ACACGACC | inactive: 0.215
155 | CCATCACG | inactive: 0.00282
156 | TCAAAAGA | inactive: 0.00721
157 | GCAGAACC | inactive: -0.0847
158 | CAAATTCG | inactive: 0.0219
159 | AACTAACT | inactive: -0.00416
160 | ATAGTTCC | inactive: -0.029
161 | GCCGGTAA | inactive: -0.0522
162 | CATCTCGA | inactive: 0.08
163 | CCGGCCTC | inactive: -0.317
164 | ACCTGCGA | inactive: 0.0067
165 | CCTTCTGC | inactive: -0.215
166 | TAGCTCGA | inactive: -0.0721
167 | AATTTGTA | inactive: 0.199
168 | CTGATGGC | inactive: -0.0471
169 | GTATTCTA | inactive: 0.185
170 | ATTGTTAG | inactive: 0.182
171 | AGGAAACA | inactive: 0.221
172 | AGGATAAA | inactive: 0.0626
173 | AATTCGCG | inactive: -0.00488
174 | ACCAACGC | inactive: 0.0138
175 | ACAACATA | active: 0.411

Row | Sequence | PBM E-score
176 | AATCAGCA | inactive: 0.138
177 | GACGACCA | inactive: -0.0136
178 | CTATTATC | inactive: 0.0447
179 | CCTGCCCC | inactive: -0.223
180 | CCACTTAG | inactive: -0.0102
181 | AACGCTCA | inactive: 0.0248
182 | GACTCAAA | inactive: 0.0565
183 | CTCTAAGA | inactive: -0.0219
184 | CAGCGTCC | inactive: -0.0584
185 | GATGAGTA | inactive: 0.156
186 | CAATCTGC | inactive: 0.0136
187 | ATTCCGGC | inactive: -0.165
188 | CAAACACC | inactive: 0.126
189 | ACAGCTTC | inactive: -0.0081
190 | GTCTTACA | inactive: 0.272
191 | GTAGGGAA | inactive: -0.00493
192 | GTGGCTGA | inactive: -0.183
193 | GTCTCAAA | inactive: 0.0277
194 | GATTCACA | inactive: 0.104
195 | AAAACCTG | inactive: 0.0857
196 | ATAAGTGC | inactive: -0.00959
197 | GAATCTTA | inactive: -0.0746
198 | CAAAACCA | ≥ 0.102
199 | CTCAAAAC | inactive: 0.0365
200 | CGTCCTGA | inactive: -0.0533

Row | Sequence | PBM E-score
201 | CCCTCGTC | inactive: -0.0345
202 | CAAACCTC | inactive: -0.123
203 | CAGTTTAG | inactive: -0.0111
204 | CGGGATGA | inactive: -0.0807
205 | CAGTTCTA | inactive: 0.0212
206 | CTCTACAG | inactive: 0.0625
207 | GTTCACGA | inactive: 0.133
208 | AAGATTCT | inactive: -0.0338
209 | GGATGTAC | inactive: 0.305
210 | AAACGCGG | inactive: -0.0824
211 | ATAGCTAA | inactive: 0.0138
212 | ATGGCTAA | inactive: 0.0375
213 | CGGACGTA | inactive: -0.108
214 | AATTAGGT | inactive: 0.119
215 | CCGCCGAC | inactive: -0.0764
216 | GCAAATGC | inactive: -0.0659
217 | ATCGAATC | inactive: 0.017
218 | ACTAGGAA | inactive: 0.103
219 | ATCTCCCG | inactive: -0.156
220 | CGTTAGTC | inactive: -0.0263
221 | ATTAAGCC | inactive: -0.0864
222 | CTCTGAAA | inactive: -0.0119
223 | AGCGACCA | inactive: -0.01
224 | GAGCAGTA | inactive: 0.029
